Data from US20240124563A1 (NANJING ZAIMING PHARMACEUTICAL, published 2024).

T1: human MSLN-R1-his protein (human, UniProt Q13421 296-390)
T1 construct: also called hMSLN-R1-his; not shown: histidine tag
T1 chain: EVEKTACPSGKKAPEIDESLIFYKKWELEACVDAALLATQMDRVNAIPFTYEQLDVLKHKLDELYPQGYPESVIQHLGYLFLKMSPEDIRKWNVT


Tests used:
[1] = molecular target: T2, human MSLN-R3-his protein (human, UniProt Q13421 487-598); experiment: ELISA, coated antigen, 0.2 nM antibody
T2 construct: also called hMSLN-R3-his; not shown: histidine tag

[2] = molecular target: T1, human MSLN-R1-his protein; experiment: ELISA, coated antigen, 0.2 nM antibody
[3] = molecular target: T3, human MSLN-R2-his protein (human, UniProt Q13421 391-486); experiment: ELISA, coated antigen, 0.2 nM antibody
T3 construct: also called hMSLN-R2-his; not shown: histidine tag

[4] = molecular target: T4, human MSLN-FL-his protein (human, UniProt Q13421 296-580); experiment: ELISA, coated antigen, 0.2 nM antibody
T4 construct: also called hMSLN-FL-his; not shown: histidine tag

[5] = molecular target: T4, human MSLN-FL-his protein; experiment: ELISA, coated antigen, 1 nM antibody
[6] = molecular target: T2, human MSLN-R3-his protein; experiment: ELISA, coated antigen, 100 nM antibody
[7] = molecular target: T2, human MSLN-R3-his protein; experiment: ELISA, coated antigen, 10 nM antibody
[8] = molecular target: T4, human MSLN-FL-his protein; experiment: ELISA, coated antigen, 0.01 nM antibody
[9] = molecular target: T4, human MSLN-FL-his protein; experiment: ELISA, coated antigen, 0.0001 nM antibody
[10] = molecular target: T4, human MSLN-FL-his protein; experiment: ELISA, coated antigen, 0.001 nM antibody
[11] = molecular target: T2, human MSLN-R3-his protein; experiment: ELISA, coated antigen, 0.0001 nM antibody
[12] = molecular target: T4, human MSLN-FL-his protein; experiment: ELISA, coated antigen, 100 nM antibody
[13] = molecular target: T4, human MSLN-FL-his protein; experiment: ELISA, coated antigen, 10 nM antibody
[14] = molecular target: T4, human MSLN-FL-his protein; experiment: ELISA, coated antigen, 0 nM antibody (blank)
[15] = molecular target: T2, human MSLN-R3-his protein; experiment: ELISA, coated antigen, 20 nM antibody
[16] = molecular target: T1, human MSLN-R1-his protein; experiment: ELISA, coated antigen, 20 nM antibody
[17] = molecular target: T3, human MSLN-R2-his protein; experiment: ELISA, coated antigen, 20 nM antibody
[18] = molecular target: T4, human MSLN-FL-his protein; experiment: ELISA, coated antigen, 20 nM antibody
[19] = molecular target: T2, human MSLN-R3-his protein; experiment: ELISA, coated antigen, 0.001 nM antibody
[20] = molecular target: T4, human MSLN-FL-his protein; experiment: ELISA, coated antigen, 0.1 nM antibody
[21] = molecular target: T2, human MSLN-R3-his protein; experiment: ELISA, coated antigen, 1 nM antibody
[22] = molecular target: T2, human MSLN-R3-his protein; experiment: ELISA, coated antigen, 0.01 nM antibody
[23] = molecular target: T2, human MSLN-R3-his protein; experiment: ELISA, coated antigen, 0.1 nM antibody
[24] = molecular target: T2, human MSLN-R3-his protein; experiment: ELISA, coated antigen, 0 nM antibody (blank)
[25] = molecular target: T5, chimeric human MSLN-R3 / chicken MSLN-R1-2 protein on HEK293T cells (clone A5) (chicken; human); experiment: FACS, HEK293T-hR3/chickR1-2-A5 cells, antibody 20 nM
T5 construct: range 327-514; Human R1-R2 replaced by chicken R1-R2; also called HEK293T-chickR1-2/hR3-A5; HEK293T-hR3/chickR1-2-A5

[26] = molecular target: T5, chimeric human MSLN-R3 / chicken …; experiment: FACS, HEK293T-hR3/chickR1-2-A5 cells, antibody 0.2 nM

OD450 nm [1] [OD450 nm] | OD450 nm [2] [OD450 nm] | OD450 nm [3] [OD450 nm] | OD450 nm [4] [OD450 nm] | OD450 nm [5] [OD450 nm] | OD450 nm [6] [OD450 nm] | OD450 nm [7] [OD450 nm] | OD450 nm [8] [OD450 nm] | OD450 nm [9] [OD450 nm] | OD450 nm [10] [OD450 nm] | OD450 nm [11] [OD450 nm] | OD450 nm [12] [OD450 nm] | OD450 nm [13] [OD450 nm] | OD450 nm [14] [OD450 nm] | OD450 nm [15] [OD450 nm] | OD450 nm [19] [OD450 nm] | OD450 nm [20] [OD450 nm] | OD450 nm [21] [OD450 nm] | OD450 nm [22] [OD450 nm] | OD450 nm [24] [OD450 nm] | Binder | other results
0.05 | 2.02 | 0.1 | 2.47 | 0.43 | 0.06 | 0.05 | 0.05 | 0.04 | 0.05 | 0.05 | 2.4 | 2.35 | 0.06 | 0.06 | 0.05 | 0.07 | 0.05 | 0.05 | 0.05 | NB149-95 VHH-hFc (Fc fusion, no linker stated) QVQLVESGGGLVQAGGSLRLSCTASESGFSANYMGWYRQEAPGKERELVATINRFGSTNYADSVKGRFTISRDNAKNTVYLQMNSLKSEDTGVYYCRIMRPGNWYWGQGTQVTVSS[human IgG1 Fc with changes not written out] | OD450 nm [16]: 2.41 OD450 nm; OD450 nm [17]: 0.34 OD450 nm; OD450 nm [18]: 2.66 OD450 nm; OD450 nm [23]: 0.05 OD450 nm
 |  |  |  | 2.29 | 0.09 | 0.06 | 0.45 | 0.06 | 0.1 | 0.06 | 2.6 | 2.28 | 0.06 |  | 0.06 | 1.75 | 0.06 | 0.06 | 0.06 | NB149-97 VHH-hFc (Fc fusion, no linker stated) EVQVVESGGGLVQAGGGLRLSCAASERTFSSSSIGWFRQAPGKEREFVATMNRIGGHTFYADPVKGRFTISRDNAANTVYLQMSSLKPEDAAVYYCASSRIYSHSPRDYDYWSQGTQVTVSS[human IgG1 Fc with changes not written out] | OD450 nm [23]: 0.06 OD450 nm
0.06 | 0.14 | 1.92 | 2.35 | 1.16 | 0.06 | 0.05 | 0.06 | 0.05 | 0.05 | 0.05 | 2.64 | 2.62 | 0.05 | 0.18 | 0.05 | 0.19 | 0.05 | 0.05 | 0.05 | NB148-25 VHH-hFc (Fc fusion, no linker stated) QVQLVESGGGLVQAGGSLRLSCAASGSTFGRIVMRWYRQAQGKQREWVASIYDSGSTSYSDPVQGRFTISRDNARNTVYLQMNSLRPADTAVYYCNLGTALSSYWGQGTQVTVSS[human IgG1 Fc with changes not written out] | OD450 nm [16]: 0.46 OD450 nm; OD450 nm [17]: 2.31 OD450 nm; OD450 nm [18]: 2.71 OD450 nm; OD450 nm [23]: 0.05 OD450 nm
 |  |  |  |  |  |  |  |  |  |  |  |  |  |  |  |  |  |  |  | NB148-13 VHH-hFc (Fc fusion) QLQLVESGGGLVQAGGSLRLSCTASGSTSMSYGAKWFRRAPGKEREWVASVYRDGTTGYDDSVKGRFTISRDLAKNTVYLQMNSLRLEDTAVYYCTALNSWGQGTQVTVSS[human IgG1 Fc with changes not written out] | MFI [25]: 74; MFI [26]: 74
0.05 | 0.19 | 0.07 | 2.48 | 0.86 | 0.07 | 0.05 | 0.06 | 0.05 | 0.05 | 0.05 | 2.62 | 2.07 | 0.05 | 0.06 | 0.05 | 0.17 | 0.05 | 0.06 | 0.05 | NB149-34 VHH-hFc (Fc fusion, no linker stated) QLQLVESGGGLVQPGGSLRLSCAASGSVNSITAMGWYRQGPGNERELVAVITDRGRASYADSVKGRFAISMDNDKHTVYLQMDSLKPEDTAVYYCNAHRRTWPHPGDYWGQGTQVTVSS[human IgG1 Fc with changes not written out] | OD450 nm [16]: 0.78 OD450 nm; OD450 nm [17]: 0.08 OD450 nm; OD450 nm [18]: 2.72 OD450 nm
